{"source": "patent US11166931B2", "about": "“Induction of arteriogenesis with an NO (nitric oxide) donor” (G. Pohl-Boskamp GmbH & Co. KG, priority 2012, dated 2021)", "system": "Sprague-Dawley rats", "test": "Collateral diameters in the ROI, coronary microvascular imaging with micro-CT", "details": "n=3", "experimental": "In addition Micro-CT is used as a further endpoint to image collaterals. […] Collateral arterial network morphology is analyzed with Amira 5.2.2 software (Visage Imaging, Berlin, Germany).", "data": [{"smiles": "CC(=O)Oc1ccccc1C(=O)O", "note": "[ASA+NTG-PLACEBO]", "values": [{"measurement": "Collateral diameters of ROI", "result": "97.1±8.6", "unit": "μm"}]}]}
